This is an account of results in ChEMBL document CHEMBL4888484, “Replenishing the malaria drug discovery pipeline: Screening and hit evaluation of the MMV Hit Generation Library 1 (HGL1) against asexual blood stage Plasmodium falciparum ,using a nano luciferase reporter read-out” (2022).

Among all 150,000 compounds or so, about 540 (0.36%) showed an effect of 50% or more. The list shows a part of the results.

For the experiment, the system named is Plasmodium falciparum. Description: Primary screen in NF54 nanoGlo assay, in single point, at 2uM, 72h; a lower Z score goes with more inhibition. It counts as functional, Erythrocyte. The following applies: timepoint 72 hour.
In the case of `COc1ccc(C(NC2CCN(C(=O)C(C)C)CC2)[C@H]2C[C@@H](O)C2)cn1` (some centres undefined), the “% Inhibition” value is 10% and the Z score is listed as -2.05.
The like results for `C[C@@H](Cc1ccsc1)N1CC2(CCNCC2)CCC1=O` were, in that order, 15% and -1.91.
On to `O=C(Nc1ccccc1OCc1ccccc1)N[C@@H]1CCCNC1`, for which the “% Inhibition” value was -8% and the Z score is 0.84.
As to `O=C1c2ccccc2N[C@H](c2cccnc2)N1Cc1ccc2c(c1)OCO2`, the “% Inhibition” value worked out at 8% and the Z score is given as -1.24.
The corresponding values for `Cc1cnc(CCNC(=O)CN2CCCCCC2)n1C1CC1` are -5% and 0.73.
The corresponding values for `CCCn1nnnc1CN[C@@H](C)c1ccc(F)c(Cl)c1` are -5% and 0.7.
The like results for `C(=C\c1cc(/C=C/c2ccccc2)ncn1)/c1ccccc1` were, in that order, -16% and 2.18.
As for `Cc1nc(C2CCCC2)sc1C(=O)Nc1ccc(N2CCNC(=O)C2)nc1`, the “% Inhibition” value is on record as -4% and the Z score stood at 0.55.
The like results for `CC(C)(C)n1cnc(NC(=O)N2CC(O)(c3cccc(Br)c3)C2)n1` were, in that order, -9% and 1.02.
As for `Cc1cc(=O)n(-c2nc(-c3ccc(Br)cc3)cs2)[nH]1`, the “% Inhibition” value is -8% and the Z score came to 1.61.
The corresponding values for `Cc1cccc2sc(OC3CN(S(=O)(=O)Cc4ccccc4)C3)nc12` are -1% and 0.08.
The like results for `Cc1nc(CNCc2c[nH]nc2C)cs1` were, in that order, -7% and 1.01.
The like results for `Cn1nncc1C(=O)N1CCC[C@H](OCC2CC2)C1` were, in that order, -3% and 0.4.
`Nc1nc2c(s1)CC1(CC2)OCCO1`: the “% Inhibition” value is -11% and the Z score was found to be 0.96.
The like results for `Cc1nn(-c2ccccc2)c(N2CCC(C(=O)N3CCCCCC3)CC2)c1-n1c(C)ccc1C` were, in that order, 2% and -0.23.
As for `Cc1nc(C)c(Br)c(N2CC(n3cc(CO)nn3)C2)n1`, the “% Inhibition” value is given as -13% and the Z score stood at 2.02.
Turning to `Cc1ncc(C(=O)NC[C@H](C)Oc2cccnc2)c(O)n1`, the “% Inhibition” value is recorded as -18% and the Z score came to 1.65.
The corresponding values for `Cc1nn(C)cc1CN1CCc2n[nH]c(=O)n2CC1` are -9% and 0.81.
As to `CCCN1CCN(c2ccc(-c3nc(-c4ccccc4)no3)nn2)CC1`, the “% Inhibition” value was -18% and the Z score amounted to 2.07.
The corresponding values for `CN(Cc1nccn1C)C(=O)c1occc1-c1ccc(F)cc1` are 5% and -0.73.
The corresponding values for `CC(C)NC(=O)C1CN(C(=O)c2ccc3c(c2)OCO3)CC1c1cccc(C(F)(F)F)c1` (centres undefined) are -7% and 0.81.
The like results for `CC(C)c1cccc(-c2nnc(C3CCOCC3)o2)n1` were, in that order, -8% and 1.
As for `COCCCN(Cc1ccc(OC)c(OC)c1)C[C@H](O)COC(C)(C)C`, the “% Inhibition” value is listed as -4% and the Z score turned out to be 0.76.
The corresponding values for `O=S(=O)(c1cccc2nsnc12)N1CC[C@@H]2COCCN(Cc3cccnc3)[C@@H]2C1` are -15% and 1.91.
Turning to `CCc1c(C(=O)Nc2ccc(-n3cncn3)nc2)cnn1-c1ccccc1`, the “% Inhibition” value is on record as -7% and the Z score amounted to 1.32.
The corresponding values for `Cc1ccc(-c2c(N3CCCC3)n[nH]c2C2CC2)cc1` are 28% and -3.12.
The like results for `COc1ccc(CN2CCn3c(n[nH]c3=O)C2)cc1CN(C(C)C)C(C)C` were, in that order, -13% and 2.2.
The corresponding values for `CC1CN(C(=O)NCc2ccc3c(c2)OCO3)C(C)CO1` (centres undefined) are -16% and 3.1.
For `NC(=O)CO[C@H]1CCOC[C@H]1NC(=O)c1ccc(Oc2ccccc2)o1`, the “% Inhibition” value was determined as 4% and the Z score is recorded as -0.64.
Consider `O=C(Nc1nc(-c2cccs2)c(-c2cccs2)s1)c1cccc(Cl)c1Cl`, for which the “% Inhibition” value was -1% and the Z score turned out to be 0.22.
The like results for `Cc1nc(-c2ccc(C(F)(F)F)cc2)c(N)c(N2CCOCC2)n1` were, in that order, -13% and 1.75.
For `C1CCN2CC3CN(c4nc(C5CC5)no4)CC3C2C1` (centres undefined), the “% Inhibition” value is -6% and the Z score is recorded as 0.55.
For `Cc1noc(C)c1S(=O)(=O)N[C@H]1CCOC[C@@H]1OCC1CC1`, the “% Inhibition” value is recorded as -4% and the Z score stood at 0.64.
On to `CC(=O)N(C[C@@H]1OC(c2ccccc2Cl)=NN1C(C)=O)c1ccc(Cl)cc1C`, for which the “% Inhibition” value is reported as 10% and the Z score is reported as -1.34.
The corresponding values for `CC[C@@H](C(=O)NCCc1cccs1)N(C)CC` are -19% and 1.96.
With `CCN(CCc1ccccc1)CC(=O)Nc1cc(S(N)(=O)=O)ccc1N(CC)CC`, the “% Inhibition” value is 7% and the Z score is listed as -1.01.
The corresponding values for `CCn1ncc(CN2CCO[C@@H](Cc3ccccc3Cl)C2)c1C` are 13% and -1.69.
In the case of `O=C(Nc1cc(C2CC2)n[nH]1)c1cc(-c2ccccn2)no1`, the “% Inhibition” value is reported as -16% and the Z score turned out to be 3.11.
The corresponding values for `COC[C@H](Cc1ccccc1)Nc1cccnc1` are -6% and 0.7.
The like results for `O=C(Nc1ccc(C(=O)O)cc1)N[C@H]1CCCN(Cc2cccc(O)c2)C1` were, in that order, -7% and 0.89.
The like results for `Cn1ccc(=O)n1Cc1cccc(C(C)(C)C)c1` were, in that order, -4% and 0.35.
For the compound `CCN(Cc1nc2cc(OC)c(OC)cc2c(=O)[nH]1)C(=O)c1sc(-c2ccccc2)nc1C`, the “% Inhibition” value is reported as -4% and the Z score was 0.73.

The % Inhibition is the change of the read-out against control, counted positive when it falls.
